# Source: the supplement of paper PMC8728848
# Some of the results follow.
# Assays:
# Assay in all cases: glycan array binding signal (z-score within array); higher = stronger binding
# Details in all cases: glycan notation: IUPAC condensed, linker removed
# [1] = biological target: Neu5Ac(a2-3)Gal(b1-4)GlcNAc(b1-3)[Neu5Ac(a2-3)Gal(b1-4)GlcNAc(b1-6)]GalNAc
# Outline: (§1)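 Glycan array binding is given as a within-array Z-score, which can be read as non-binding when negative. The arrays, 3228 of them, came from the Consortium for Functional Glycomics database and were retained only where the protein sequence was available. Z-scores were averaged across arrays of the same protein sequence at different concentrations or buffers and across linkers.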
# [2] = biological target: Neu5Ac(a2-3)Gal(b1-4)GlcNAc(b1-6)GalNAc
# Outline: as §1
# [3] = biological target: Neu5Ac(a2-3)Gal(b1-4)GlcNAc(b1-6)[Gal(b1-3)]GalNAc
# Outline: as §1
# [4] = biological target: Neu5Ac(a2-3)Gal(b1-4)GlcNAc(b1-6)[Neu5Ac(a2-3)Gal(b1-3)]GalNAc
# Outline: as §1
# [5] = biological target: Neu5Ac(a2-3)Gal(b1-4)GlcNAc6S
# Outline: as §1
# [6] = biological target: Neu5Ac(a2-3)Gal(b1-4)[Fuc(a1-3)]GlcNAc
# Outline: as §1
# [7] = biological target: Neu5Ac(a2-3)Gal(b1-4)[Fuc(a1-3)]GlcNAc(b1-2)Man
# Outline: as §1
# [8] = biological target: Neu5Ac(a2-3)Gal(b1-4)[Fuc(a1-3)]GlcNAc(b1-3)Gal
# Outline: as §1
# [9] = biological target: Neu5Ac(a2-3)Gal(b1-4)[Fuc(a1-3)]GlcNAc(b1-3)Gal(b1-4)GlcNAc
# Outline: as §1
# [10] = biological target: Neu5Ac(a2-3)Gal(b1-4)[Fuc(a1-3)]GlcNAc(b1-3)Gal(b1-4)[Fuc(a1-3)]GlcNAc(b1-3)Gal(b1-4)[Fuc(a1-3)]GlcNAc
# Outline: as §1
# [11] = biological target: Neu5Ac(a2-3)Gal(b1-4)[Fuc(a1-3)]GlcNAc(b1-3)GalNAc
# Outline: as §1
# [12] = biological target: Neu5Ac(a2-3)Gal(b1-4)[Fuc(a1-3)]GlcNAc(b1-6)[Gal(b1-3)]GalNAc
# Outline: as §1
# [13] = biological target: Neu5Ac(a2-3)Gal(b1-4)[Fuc(a1-3)]GlcNAc(b1-6)[Neu5Ac(a2-3)Gal(b1-3)]GalNAc
# Outline: as §1
# [14] = biological target: Neu5Ac(a2-3)Gal(b1-4)[Fuc(a1-3)]GlcNAc6S
# Outline: as §1
# [15] = biological target: Neu5Ac(a2-3)Gal6S(b1-4)GlcNAc
# Outline: as §1
# [16] = biological target: Neu5Ac(a2-3)Gal6S(b1-4)[Fuc(a1-3)]GlcNAc
# Outline: as §1
# Neu5Ac(a2-3)GalNAc = biological target: Neu5Ac(a2-3)GalNAc
# Outline: as §1
# [17] = biological target: Neu5Ac(a2-3)GalNAc(b1-4)GlcNAc
# Outline: as §1
# [18] = biological target: Neu5Ac(a2-3)[GalNAc(b1-4)]Gal(b1-4)Glc
# Outline: as §1
# [19] = biological target: Neu5Ac(a2-3)[GalNAc(b1-4)]Gal(b1-4)GlcNAc
# Outline: as §1
# [20] = biological target: Neu5Ac(a2-3)[GalNAc(b1-4)]Gal(b1-4)GlcNAc(b1-3)GalNAc
# Outline: as §1
# [21] = biological target: Neu5Ac(a2-3)[Neu5Ac(a2-6)]GalNAc
# Outline: as §1
# Neu5Ac(a2-6)Gal = biological target: Neu5Ac(a2-6)Gal
# Outline: as §1
# [22] = biological target: Neu5Ac(a2-6)Gal(b1-3)GlcNAc(b1-3)[Gal(b1-4)GlcNAc(b1-6)]Gal(b1-4)Glc
# Outline: as §1
# Neu5Ac(a2-6)Gal(b1-4)Glc = biological target: Neu5Ac(a2-6)Gal(b1-4)Glc
# Outline: as §1
# [23] = biological target: Neu5Ac(a2-6)Gal(b1-4)GlcNAc
# Outline: as §1
# [24] = biological target: Neu5Ac(a2-6)Gal(b1-4)GlcNAc(b1-2)Man
# Outline: as §1
# [25] = biological target: Neu5Ac(a2-6)Gal(b1-4)GlcNAc(b1-2)Man(a1-3)Man(b1-4)GlcNAc(b1-4)GlcNAc
# Outline: as §1
# [26] = biological target: Neu5Ac(a2-6)Gal(b1-4)GlcNAc(b1-2)Man(a1-3)[Gal(b1-4)GlcNAc(b1-2)Man(a1-6)]Man(b1-4)GlcNAc(b1-4)GlcNAc
# Outline: as §1
# [27] = biological target: Neu5Ac(a2-6)Gal(b1-4)GlcNAc(b1-2)Man(a1-3)[GlcNAc(b1-2)Man(a1-6)]Man(b1-4)GlcNAc(b1-4)GlcNAc
# Outline: as §1
# [28] = biological target: Neu5Ac(a2-6)Gal(b1-4)GlcNAc(b1-2)Man(a1-3)[GlcNAc(b1-4)][Neu5Ac(a2-6)Gal(b1-4)GlcNAc(b1-2)Man(a1-6)]Man(b1-4)GlcNAc(b1-4)GlcNAc
# Outline: as §1
# [29] = biological target: Neu5Ac(a2-6)Gal(b1-4)GlcNAc(b1-2)Man(a1-3)[Man(a1-6)]Man(b1-4)GlcNAc(b1-4)GlcNAc
# Outline: as §1
# [30] = biological target: Neu5Ac(a2-6)Gal(b1-4)GlcNAc(b1-2)Man(a1-3)[Neu5Ac(a2-3)Gal(b1-4)GlcNAc(b1-2)Man(a1-6)]Man(b1-4)GlcNAc(b1-4)GlcNAc
# Outline: as §1
# [31] = biological target: Neu5Ac(a2-6)Gal(b1-4)GlcNAc(b1-2)Man(a1-3)[Neu5Ac(a2-6)Gal(b1-4)GlcNAc(b1-2)Man(a1-6)]Man(b1-4)GlcNAc(b1-4)GlcNAc
# Outline: as §1
# [32] = biological target: Neu5Ac(a2-6)Gal(b1-4)GlcNAc(b1-2)Man(a1-3)[Neu5Ac(a2-6)Gal(b1-4)GlcNAc(b1-2)Man(a1-6)]Man(b1-4)GlcNAc(b1-4)[Fuc(a1-6)]GlcNAc
# Outline: as §1
# [33] = biological target: Neu5Ac(a2-6)Gal(b1-4)GlcNAc(b1-2)Man(a1-6)Man(b1-4)GlcNAc(b1-4)GlcNAc
# Outline: as §1
# [34] = biological target: Neu5Ac(a2-6)Gal(b1-4)GlcNAc(b1-2)Man(a1-6)[Gal(b1-4)GlcNAc(b1-2)Man(a1-3)]Man(b1-4)GlcNAc(b1-4)GlcNAc
# Outline: as §1
# [35] = biological target: Neu5Ac(a2-6)Gal(b1-4)GlcNAc(b1-2)Man(a1-6)[GlcNAc(b1-2)Man(a1-3)]Man(b1-4)GlcNAc(b1-4)GlcNAc
# Outline: as §1
# [36] = biological target: Neu5Ac(a2-6)Gal(b1-4)GlcNAc(b1-2)Man(a1-6)[Man(a1-3)]Man(b1-4)GlcNAc(b1-4)GlcNAc
# Outline: as §1
# [37] = biological target: Neu5Ac(a2-6)Gal(b1-4)GlcNAc(b1-2)[Neu5Ac(a2-6)Gal(b1-4)GlcNAc(b1-4)]Man(a1-3)[GlcNAc(b1-4)][Neu5Ac(a2-6)Gal(b1-4)GlcNAc(b1-2)[Neu5Ac(a2-6)Gal(b1-4)GlcNAc(b1-6)]Man(a1-6)]Man(b1-4)GlcNAc(b1-4)GlcNAc
# Outline: as §1
# [38] = biological target: Neu5Ac(a2-6)Gal(b1-4)GlcNAc(b1-2)[Neu5Ac(a2-6)Gal(b1-4)GlcNAc(b1-4)]Man(a1-3)[GlcNAc(b1-4)][Neu5Ac(a2-6)Gal(b1-4)GlcNAc(b1-4)Man(a1-6)]Man(b1-4)GlcNAc(b1-4)GlcNAc
# Outline: as §1
# [39] = biological target: Neu5Ac(a2-6)Gal(b1-4)GlcNAc(b1-2)[Neu5Ac(a2-6)Gal(b1-4)GlcNAc(b1-6)]Man(a1-6)[Neu5Ac(a2-6)Gal(b1-4)GlcNAc(b1-2)Man(a1-3)][GlcNAc(b1-4)]Man(b1-4)GlcNAc(b1-4)GlcNAc
# Outline: as §1
# [40] = biological target: Neu5Ac(a2-6)Gal(b1-4)GlcNAc(b1-3)Gal(b1-3)GlcNAc
# Outline: as §1
# [41] = biological target: Neu5Ac(a2-6)Gal(b1-4)GlcNAc(b1-3)Gal(b1-4)GlcNAc
# Outline: as §1
# [42] = biological target: Neu5Ac(a2-6)Gal(b1-4)GlcNAc(b1-3)Gal(b1-4)GlcNAc(b1-2)Man(a1-3)[Neu5Ac(a2-6)Gal(b1-4)GlcNAc(b1-3)Gal(b1-4)GlcNAc(b1-2)Man(a1-6)]GalNAc
# Outline: as §1
# [43] = biological target: Neu5Ac(a2-6)Gal(b1-4)GlcNAc(b1-3)Gal(b1-4)GlcNAc(b1-3)Gal(b1-4)GlcNAc
# Outline: as §1
binder,measurement,setting,value
"MSMEG3662-2a (Mycobacterium smegmatis), A0QYH7_MYCS2 (protein) MGDTLTAGQKLERGGSLQSGNGAYTLTLQDDGNLVLYARDKAVWSTGTNGQDVVRAEVQTDGNFVLYTAEKPVWHTDTKGKKEVKLVLQDDRNLVLYAKDGPAWSSKTDTTEPPPPAPEPEKEAEVAPAAAEEAAPAPVAEPAPAEPAPAAPPPAPPAPRTYTVVSGDTLWAIAERFYGDGSKYQQIADASGIANPDLIHPGQVLTIP",glycan array binding signal (z-score),[1],-0.194
same,glycan array binding signal (z-score),[2],-0.234
same,glycan array binding signal (z-score),[3],-0.138
same,glycan array binding signal (z-score),[4],-0.173
same,glycan array binding signal (z-score),[5],-0.169
same,glycan array binding signal (z-score),[6],-0.124
same,glycan array binding signal (z-score),[7],-0.056
same,glycan array binding signal (z-score),[8],-0.11
same,glycan array binding signal (z-score),[9],0.136
same,glycan array binding signal (z-score),[10],-0.044
same,glycan array binding signal (z-score),[11],0.43
same,glycan array binding signal (z-score),[12],-0.06
same,glycan array binding signal (z-score),[13],-0.189
same,glycan array binding signal (z-score),[14],-0.001
same,glycan array binding signal (z-score),[15],-0.121
same,glycan array binding signal (z-score),[16],-0.044
same,glycan array binding signal (z-score),Neu5Ac(a2-3)GalNAc,-0.06
same,glycan array binding signal (z-score),[17],-0.096
same,glycan array binding signal (z-score),[18],-0.219
same,glycan array binding signal (z-score),[19],-0.16
same,glycan array binding signal (z-score),[20],-0.025
same,glycan array binding signal (z-score),[21],-0.161
same,glycan array binding signal (z-score),Neu5Ac(a2-6)Gal,-0.121
same,glycan array binding signal (z-score),[22],-0.087
same,glycan array binding signal (z-score),Neu5Ac(a2-6)Gal(b1-4)Glc,-0.068
same,glycan array binding signal (z-score),[23],-0.128
same,glycan array binding signal (z-score),[24],-0.192
same,glycan array binding signal (z-score),[25],-0.194
same,glycan array binding signal (z-score),[26],-0.144
same,glycan array binding signal (z-score),[27],-0.06
same,glycan array binding signal (z-score),[28],-0.13
same,glycan array binding signal (z-score),[29],-0.164
same,glycan array binding signal (z-score),[30],0.058
same,glycan array binding signal (z-score),[31],-0.046
same,glycan array binding signal (z-score),[32],-0.158
same,glycan array binding signal (z-score),[33],-0.146
same,glycan array binding signal (z-score),[34],-0.119
same,glycan array binding signal (z-score),[35],-0.129
same,glycan array binding signal (z-score),[36],-0.14
same,glycan array binding signal (z-score),[37],-0.144
same,glycan array binding signal (z-score),[38],0.058
same,glycan array binding signal (z-score),[39],-0.171
same,glycan array binding signal (z-score),[40],-0.094
same,glycan array binding signal (z-score),[41],-0.118
same,glycan array binding signal (z-score),[42],0.002
same,glycan array binding signal (z-score),[43],-0.108
